{"source": "PubChem BioAssay AID2451", "about": "(National Center for Advancing Translational Sciences (NCATS), 2010)", "note": "Among all 290,000 compounds or so, about 2,100 (0.72%) were called active. The shares of active, inactive and inconclusive entries below differ from those in the screen. Calls follow the shape of the dose curve; as a rule, active = well fitted inhibition curve with a large enough effect; inconclusive = small, poorly fitted or top-dose-only effect, or effect the other way; inactive = flat fitted curve, though single readings scatter. Where the call is inconclusive, the potency comes from a doubtful curve fit. % is scaled to controls: 0 for no effect and ±100 for the full control effect; potency is read from the fitted curve at half-maximal effect; tags tell the direction and shape of the fitted curve.", "data": [{"molecular_target": "Fructose-bisphosphate aldolase (Giardia intestinalis (strain ATCC 50803 / WB clone C6)) (UniProt A8B2U2)", "sequence (A8B2U2 whole entry, looked up)": "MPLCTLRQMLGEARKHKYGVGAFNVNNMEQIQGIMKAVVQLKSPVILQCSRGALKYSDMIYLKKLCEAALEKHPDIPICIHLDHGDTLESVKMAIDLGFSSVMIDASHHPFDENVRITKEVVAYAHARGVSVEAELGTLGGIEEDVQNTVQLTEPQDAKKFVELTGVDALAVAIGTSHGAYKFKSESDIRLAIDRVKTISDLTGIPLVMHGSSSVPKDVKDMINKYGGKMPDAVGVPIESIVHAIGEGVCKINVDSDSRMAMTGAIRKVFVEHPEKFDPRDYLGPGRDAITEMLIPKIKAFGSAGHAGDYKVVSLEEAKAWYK", "assay": "qHTS Assay for Inhibitors of Fructose-1,6-bisphosphate Aldolase from Giardia Lamblia; also: nearly all actives have a fitted effect of over 55% in size", "conditions": "purified Giardia FBPA; activity, negative = inhibition: at 59.6 µM (top of the series) unless noted", "method_in_brief": "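40 nM FBPA preincubated 10 min at RT with compound (up to 57.5 uM final), then substrate plus GAPDH/TPI/NAD/arsenate coupling and diaphorase/resazurin added. Fluorescence read after 20 min at RT, 525/598 nm.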", "values": [{"smiles": "Nn1c(-c2ccco2)n[nH]c1=S", "Potency": "inconclusive: 6.29 µM [inhibitor, partial curve]"}, {"smiles": "N#CCCN(Cc1cccnc1)C(=S)NC(=O)c1ccc(S(=O)(=O)N2CCCC2)cc1", "Potency": "active: 7.92 µM"}, {"smiles": "CCCNC(=O)C1(S(=O)(=O)c2ccccc2)CC=CC1", "activity, negative = inhibition": "inconclusive: 58% [activator]"}, {"smiles": "CC(=O)c1ccc(N2CCN(CC(O)COCc3ccco3)CC2)cc1", "note": "(centres undefined)", "Potency": "inconclusive: 17.7 µM [inhibitor, partial curve]"}, {"smiles": "Cc1ccc2c(c1)c(N=Nc1cccc(C(=O)O)c1)c(O)n2C", "Potency": "inconclusive: 15.8 µM [activator, single point]"}, {"smiles": "COc1cc(Br)ccc1C1CC(=O)C(C)C(c2ccc(Br)cc2OC)N1", "note": "(centres undefined)", "Potency": "inactive"}, {"smiles": "CC[n+]1ccc(C)c2cc(S(=O)C(F)(F)F)ccc21", "note": "(centres undefined)", "Potency": "inconclusive: 2.81 µM [inhibitor, full curve]"}, {"smiles": "C/C(=N\\NC(=O)c1c[nH]c2ccccc12)c1ccccn1", "Potency": "inconclusive: 15.8 µM [inhibitor, partial curve]"}, {"smiles": "CSc1nccn1CC(=O)Nc1ccc(F)cc1", "Potency": "inconclusive: 3.97 µM [inhibitor, single point]"}, {"smiles": "CN(Cc1cccc([N+](=O)[O-])c1)Cc1cccc2ccccc12", "Potency": "inconclusive: 28.2 µM [inhibitor, single point]"}, {"smiles": "COc1cc(CN2CCN(Cc3ccco3)CC2)cc(OC)c1", "Potency": "active: 14.1 µM"}, {"smiles": "COc1cccc(Nc2ncnc3c2cnn3-c2cccc(C)c2)c1", "Potency": "inconclusive: 22.3 µM [inhibitor, single point]"}, {"smiles": "COc1ccc(C2NC(=O)C(C#N)=C(S)N2c2ccc(C)cc2)cc1OC", "note": "(centres undefined)", "Potency": "inconclusive: 15.8 µM [inhibitor, partial curve]"}, {"smiles": "CC(C)CCN1CCc2nc(COc3ccccc3)c3c(c2C1)COC(C)C3", "note": "(centres undefined)", "activity, negative = inhibition": "inactive: -6.51% [at 12.9 µM]"}, {"smiles": "CC1(C)[C@@H](O)CC[C@]2(C)C3C(=O)C=C4C5C[C@@](C)(C(=O)O)CC[C@]5(C)CC[C@@]4(C)[C@]3(C)CC[C@@H]12", "note": "(some centres undefined)", "Potency": "inconclusive: 25.1 µM [activator, partial curve]"}, {"smiles": "CN(C)c1ccc(NC(=O)c2ccc3nsnc3c2)cc1", "Potency": "inactive"}, {"smiles": "O=S(=O)(c1ccc(F)cc1)N1CCN(CC2CC3C=CC2C3)CC1", "note": "(centres undefined)", "Potency": "inconclusive: 17.8 µM [inhibitor, partial curve]"}, {"smiles": "O=C(NCc1ccccc1)N1CCNCC1", "Potency": "inconclusive: 20 µM [inhibitor, single point]"}, {"smiles": "COc1ccc(NC2CCCN(C(=O)C3(C)CCCCC3)C2)cc1OC", "note": "(centres undefined)", "Potency": "inconclusive: 14.1 µM [inhibitor, partial curve]"}]}]}
